For 90 compounds, survival results are on record in PubChem BioAssay AID463173 (ICCB-Longwood Screening Facility, Harvard Medical School, 2010).

The campaign covered roughly 52,000 compounds. About 1,700 (3.3%) were called active. Rule as the data show it: active = survival mostly below about 52% (no sharp cut-off); inactive = mostly above about 56%. The list shows a part of the results.

For this assay, the system named is Wild type. Briefly: S. aureus survival, RN4220 and DeltatarO strains – OD600, teichoic acid synthesis inhibitors, primary screen (AID 463173). The following applies: S. aureus RN4220 wild type/DeltatarO growth, OD600, 18 h, hits give low values, screened at 18.75 µg/mL (by protocol).
Turning to `COc1cccc(N2CCN(C(=O)c3cnc4c(-c5ccc(F)cc5)c(C)nn4c3C)CC2)c1`, the survival is active: -6%.

For the compound `COc1ccc(C(=O)Oc2c(Sc3ccccc3)c(C)nn2-c2ccccc2)c(OC)c1`, the survival was inactive: 108%. The same measure for `COc1ccc(C)c2sc(NC(=O)c3ccc(S(=O)(=O)N4CCOCC4)cc3)nc12`: inactive: 79%.

On to `COc1ccccc1CNC(=O)C(=O)NCC(c1ccco1)S(=O)(=O)c1ccc(F)cc1` (stereo not given), for which the survival was inactive: 83%.

Take `Cc1c(C(C)(C)C)sc(=N)n1C`: the survival is inactive: 86%. On to `Cc1cccc(C)c1OCCn1c(CCNC(=O)C2CCCCC2)nc2ccccc21`, for which the survival was inactive: 65%.

Turning to `CCOc1ccc(NC(=O)c2cc(-c3ccc(C)c(F)c3)on2)c([N+](=O)[O-])c1`, the survival was inactive: 85%. The value for `C=CCn1c(=O)c(C2=NS(=O)(=O)c3ccccc3N2)c(O)c2ccccc21` was inactive: 96%; that for `COC(=O)c1ccccc1NS(=O)(=O)c1cc2c3c(c1)CC(=O)N3CCC2` was inactive: 64%. The value for `CC1=NN(c2ccc(S(N)(=O)=O)cc2)C(=O)C1` was inactive: 113%; that for `CC(C)(C)c1ccc(C(=O)NCC(c2ccco2)S(=O)(=O)c2ccccc2)cc1` (stereo not given) was inactive: 70%. The value for `O=C(Cn1c(=O)sc2ccccc21)Nc1ccc(O)cc1` was inactive: 103%.

Turning to `CCN(CC)S(=O)(=O)c1ccc2c(c1)N(CC(=O)Nc1ccc(Cl)cc1)C(=O)C1CCCN21` (stereo not given), the survival is inactive: 82%. The same measure for `COc1cccc(C(=O)Nc2nc(-c3nnn(-c4ccccc4C(F)(F)F)c3C)ns2)c1`: inactive: 76%; for `CCOc1ccc2nc(N(Cc3cccnc3)C(=O)c3cccs3)sc2c1`: inactive: 68%; for `COc1cccc(-c2nc(Cn3c(=O)cc(C)c4c(C)nn(-c5ccccc5)c43)c(C)o2)c1OC`: inactive: 74%.

For the compound `COc1ccc(-c2nc3ccccc3n2Cc2ccccc2)cc1`, the survival was active: 0%.

With `Cc1c(Cl)ccc2sc(N3CCN(C(=O)CCS(=O)(=O)c4ccc(F)cc4)CC3)nc12`, the survival was active: -3%. Take `Cc1ccc(-n2nc(C)c3c(C(=O)Nc4ccccc4C(F)(F)F)cc(C)nc32)cc1`: the survival was inactive: 69%. The same measure for `Cc1ccc2c(c1)C(c1ccccc1)N(C(=O)COc1ccc(Cl)cc1Cl)CC(=O)N2` (stereo not given): inactive: 69%; for `CC1=C(C(=O)Nc2ccccc2)C(c2ccccn2)n2nc(SCc3ccccc3)nc2N1` (stereo not given): inactive: 85%; for `CCCCN1C(=O)C(O)(CC(=O)c2ccc(CC)cc2)c2cc(Br)ccc21` (stereo not given): active: 2%. The same measure for `CCCN(C(=O)c1cc2c(=O)oc3ccc(C)cc3c2s1)c1ccc(OCC)cc1`: inactive: 62%; for `O=c1oc2cc(Br)ccc2n1CO`: inactive: 102%; for `Cc1ccc(-c2noc(C3CCCN(C(=O)c4ccccc4)C3)n2)o1` (stereo not given): inactive: 131%. `COc1cccc(CNC(=O)Cn2nc(C)n3c(cc4cc(C)ccc43)c2=O)c1OC`: the survival was inactive: 133%. `CCSc1nc(-c2cccc(Cl)c2)nc2c1Cc1c(CO)cnc(C)c1O2`: the survival is inactive: 114%. The value for `Cc1c[n+](CC(=O)c2ccccc2)c(C)cn1` was inactive: 124%; that for `Cc1cc(C)c(NC(=O)CSc2nc(=O)n(Cc3ccncc3)c3c2CCC3)c(C)c1` was inactive: 85%; that for `CCc1nn(CC(=O)N2CCN(c3cccc(C)c3)C(C)C2)c(=O)c2cc3sccc3n12` (stereo not given) was inactive: 134%. The value for `CCN1CCN(C(=S)Nc2ccccc2)CC1` was inactive: 112%; that for `CCOCCCNC(=O)C(c1ccc(C)cc1)N(Cc1ccc2c(c1)OCO2)C(=O)c1ccccc1O` (stereo not given) was inactive: 73%. The same measure for `Cc1ccc(NC(=O)n2ncc3c(C)cccc32)c(C)c1`: inactive: 85%; for `O=C(CSc1nnc2scc(-c3ccc(Cl)cc3)n12)Nc1ccc(F)cc1`: inactive: 71%; for `COc1ccccc1C(=O)NC1(C(F)(F)F)NC(=O)N(CCc2ccccc2)C1=O` (stereo not given): inactive: 60%. `Cc1ccc(Nc2c(-c3cccnc3)nc3ccc(C)cn23)cc1`: the survival is inactive: 69%. The value for `COc1cccc(C2=CC(c3ccccc3F)n3ncc(C(=O)Nc4ccc(F)cc4)c3N2)c1` (stereo not given) was inactive: 68%; that for `Cc1ccc(N(C)C(=O)Cn2ncc3c([nH]c4ccccc43)c2=O)cc1C` was inactive: 32%. With `CCc1ccc(CNC(=O)c2ccc3c(c2)c(C)c(C)n3Cc2ccccc2)cc1`, the survival is inactive: 73%. For the compound `O=C(NC1CCCCC1)c1ccc(CSc2nc3ccncc3n2Cc2cccc(F)c2)cc1`, the survival is inactive: 136%. The value for `O=C(CSc1nc2c([nH]c3ccccc32)c(=O)n1-c1ccccc1)Nc1cccc(C(F)(F)F)c1` was active: -6%. The same measure for `O=C(CC1SCC(C(=O)O)NC1=O)NCc1ccccc1` (stereo not given): inactive: 105%; for `CCOC(=O)N1CCc2c(sc(NCc3cc(OC)ccc3OC)c2C(=O)Nc2cc(OC)ccc2OC)C1`: inactive: 138%; for `CS(=O)(=O)N1CCN(C(=O)c2ccccc2)CC1`: inactive: 110%. The value for `O=C(/C=C/c1ccco1)Nc1ccc(-c2nc3ccccc3[nH]2)cc1` was inactive: 114%; that for `COc1ccc(CNCC#N)cc1OC` was inactive: 109%. Turning to `COC(=O)c1cc(-c2ccc(Cl)cc2)c2c(=O)[nH]c(=O)n(C)c2n1`, the survival is inactive: 102%.

As for `CCOCCCNC(=O)C1CCN(c2nc3ccc(C)cc3[nH]2)CC1`, the survival was inactive: 75%.

With `Cc1nn(C2CC(=O)N(c3ccc(Cl)cc3)C2=O)c(C)c1C` (stereo not given), the survival is inactive: 98%. The value for `COc1ccc(N2CCN(C(=O)Cn3cnc4sc(C)c(S(=O)(=O)N5CCCCC5)c4c3=O)CC2)cc1` was inactive: 90%.

Turning to `Cc1ccc(Cn2c(=O)n(CCc3ccccc3)c(=O)c3sc4ccccc4c32)cc1`, the survival was inactive: 80%.

As for `Cc1ccc(NC(=O)CCn2cccn2)c(C)c1`, the survival was inactive: 71%. On to `COc1ccc(NC(=O)CCc2c(C)nn(-c3ccc(N4CCCC4)nn3)c2C)cc1Cl`, for which the survival was inactive: 75%. For the compound `COc1cccc(C(C(=O)NCC2CCCO2)N(CC2CCCO2)C(=O)CC2C(=O)c3ccccc3S2(=O)=O)c1` (stereo not given), the survival was inactive: 107%. The value for `Cc1ccc(-c2nnc(SC(C)C)n2-c2ccccc2)cc1` was inactive: 114%.

`O=C(CSc1cn(CCNC(=O)c2ccccc2F)c2ccccc12)Nc1ccc2c(c1)OCCO2`: the survival is inactive: 78%. The same measure for `O=c1[nH]c2cc3c(cc2cc1CNCc1ccc2c(c1)OCO2)OCCO3`: inactive: 104%; for `COCCn1c(C)cc(O)c(C(c2ccccc2)N2CCN(c3ccccc3F)CC2)c1=O` (stereo not given): inactive: 118%. The value for `O=C(c1ccccc1)N1CCC(c2nc3c(nnn3Cc3ccccc3)c(=O)[nH]2)CC1` was active: 0%; that for `CC(Nc1ccc(-c2nc(-c3cccnc3)no2)cc1[N+](=O)[O-])c1ccccc1` (stereo not given) was inactive: 87%. For `CCS(=O)(=O)c1ccc(C(=O)N2CCN(c3nc4c(OC)ccc(C)c4s3)CC2)cc1`, the survival was inactive: 91%. The same measure for `Cc1ccc(NC(=O)CCn2nc(C)c3c(C)n(-c4ccccc4)nc3c2=O)cc1Cl`: inactive: 121%; for `O=C(Cn1ncc2ccsc2c1=O)N1CCN(c2ccc(Cl)cc2)CC1`: inactive: 72%; for `COc1ccccc1-c1nc(CNC(=O)NC2CCCCC2)c(C)o1`: inactive: 71%. The same measure for `COc1cccc(NC(=O)CSc2cc(C)c3ccccc3n2)c1`: inactive: 73%. The value for `COc1ccc(NC(=O)c2c(-c3ccc(C)cc3)nnc3ccccc23)cc1OC` was inactive: 80%. Regarding `O=C(c1cnccn1)N(Cc1ccc(Cl)cc1)Cc1cc2cc3c(cc2[nH]c1=O)OCCO3`, the survival was inactive: 88%. The same measure for `Cc1ccc2c(Sc3ccc(Cl)cc3)c(C(=O)N3CCCCC3)[nH]c2c1`: inactive: 112%; for `CON(C)c1nc(OCCNC(=O)OCc2ccc(Cl)cc2Cl)nc(N(C)C)n1`: inactive: 110%; for `CC1CCCCN1Cc1nc2c(c(=O)n(C)c(=O)n2C)n1Cc1ccc(Br)cc1` (stereo not given): inactive: 81%. The same measure for `CC(C)c1ccc(NC(=O)c2cn(C3CCCC3)c(=O)c3c2c2ccccc2n3C)cc1`: inactive: 87%; for `CCCOc1ccc(NC(=O)CC2C(=O)N(c3cccc(OC)c3)C(=O)N2CCc2ccncc2)cc1` (stereo not given): inactive: 73%. In the case of `CCOc1ccc(-c2csc3ncn(CC(N)=O)c(=O)c23)cc1`, the survival was inactive: 107%. The value for `N#C/C(=C/c1cccs1)C(N)=S` was inactive: 87%; that for `CC(=O)c1ccc(S(=O)(=O)N2CCC(Oc3ccc(-n4cnnn4)cc3)CC2)cc1` was inactive: 87%. Turning to `O=C(Nc1cccc(C(=O)OCc2cc(=O)n3nc(C4CC4)sc3n2)c1)c1ccc(F)cc1`, the survival is inactive: 81%. Regarding `CCCC(=O)NC1CC(=O)N(c2ccc3c(c2)OCCO3)C1` (stereo not given), the survival is inactive: 97%. The same measure for `CCc1ccc(NC(=O)CN2C(=O)C(=O)c3ccccc32)cc1`: inactive: 65%; for `O=C(Nc1cccc(Cl)c1)N1Cc2ccccc2Oc2ncccc21`: inactive: 113%. The same measure for `COc1ccc(S(=O)(=O)Nc2ccc(O)c(Sc3nc4ccccc4s3)c2)cc1`: inactive: 93%; for `Cc1c(C(=O)N(C)C)sc2c1c(=O)n(-c1ccc(Cl)c(Cl)c1)c(=O)n2Cc1ccc(F)cc1`: inactive: 79%. Consider `COc1ccccc1C1C(C(N)=O)=C(C)Nc2nc(SCc3ccccc3F)nn21` (stereo not given), for which the survival was inactive: 80%. Regarding `O=C(Nc1ccccn1)C1(c2ccccc2)CCCC1`, the survival is inactive: 108%. Regarding `CN(C(=O)CSc1nc2ccc(NC(=O)c3ccc(F)cc3)cc2s1)c1ccccc1`, the survival was inactive: 75%. Turning to `CCOc1ccccc1NC(=O)c1ccc2oc(=O)c(S(=O)(=O)c3ccc(F)cc3)cc2c1`, the survival is inactive: 65%. The same measure for `Cc1ccccc1CCNC(=O)c1cc2ccccn2n1`: inactive: 84%; for `Cc1cccc(N2CCN(C(=O)Cn3nc(C)c4sc5ccccc5c4c3=O)CC2C)c1` (stereo not given): inactive: 116%; for `CCn1cc(C(=O)N(C)Cc2ccccc2)c(=O)c2cc(S(=O)(=O)N3CCCCC3)ccc21`: inactive: 82%.

Take `COc1ccc(-c2onc(C)c2C)cc1S(=O)(=O)NC1CCCCC1`: the survival is inactive: 71%.

For `Cc1cccc(N2CCN(c3c(CN4CCCC4)c(=O)oc4ccccc34)CC2)c1C`, the survival is inactive: 88%.
